Measured values published in ChEMBL document CHEMBL5308541, “MAIP: An Open-Source Tool to Enrich High-Throughput Screening Output and Identify Novel, Druglike Molecules with Antimalarial Activity” (ACS Med Chem Lett, 2023).
The whole screen tested about 150,000 compounds, of which about 540 (0.36%) showed an effect of 50% or more. The list shows a part of the results.

Test system: Plasmodium falciparum
Test: Primary screen in NF54 nanoGlo assay, in single point, at 2uM, 72h; a lower Z score goes with more inhibition
Assay type: functional, Erythrocyte
Details: timepoint 72 hour

Compound | % Inhibition | Z score
COc1ccc(F)c2[nH]c(C(=O)NCCCCN3CCCC[C@@H]3C)cc12 | -11% | 2.28
c1ccc(C2COCC3CN(Cc4ccc5[nH]ccc5c4)CCN32)cc1 (configuration not stated) | -2% | 0.53
NC(=O)[C@H]1CCCN(C2CCN(c3cccc(-c4cc[nH]n4)c3)CC2)C1 | -9% | 1.58
CC(=O)N1CC2CN(c3ncnc4[nH]ccc34)CC2(CCc2ccccc2)C1 (configuration not stated) | -4% | 0.65
O=C(Cc1ccc(F)cc1F)N1CCC(Oc2cnsn2)CC1 | -7% | 1.48
COc1ccc2c(c1)c(CN1CCC(CCc3noc(C4CC4)n3)CC1)cn2C | -11% | 1.89
Cc1occc1-c1cc(NC(=O)N2CC[C@H](CN3CCCC3)C2)no1 | 4% | -0.71
Cc1cc(Nc2ccc(F)c(F)c2)n2nc(-c3ccccc3)c(C)c2n1 | -6% | 0.98
N#CC1(c2nc(-c3sc4ccccc4c3Cl)no2)CCOCC1 | 14% | -2.78
COC(=O)c1cn(CCNc2ccnc3cc(Cl)ccc23)cc2c(O)nnc1-2 | 97% | -19.19
CCOc1ccc2nc(CN(CC)CC3CCN(C4CCN(C)CC4)CC3)ccc2c1 | 80% | -13.89
Cc1cc(S(=O)(=O)N2CCC[C@H](c3nc(C)c(C)[nH]3)C2)c(C)o1 | -11% | 1.95
Cc1nnc(NS(=O)(=O)c2ccc3c(c2)CCCC3=O)o1 | -1% | 0.25
Cn1cc(-c2ccccc2CNc2cc(NCC3CC3)ncn2)cn1 | -6% | 1.23
CC(NC(=O)CN1CCCC(CN2CCCCC2C)C1)C(=O)N1CCCCC1 (configuration not stated) | 7% | -0.99
O=C(c1cccc(-c2ncc[nH]2)c1)N1CCN(CCN2CCOCC2)CC1 | -13% | 2.48
O=C(Nc1ccc(Oc2ccccc2)nc1)C1CCN(Cc2cccc3cnccc23)CC1 | -6% | 1.17
Cc1cc(=O)[nH]c(-n2nc(C)cc2NC(=O)[C@H](C)n2nc3c(cc2=O)CCC3)n1 | -7% | 1.4
CCN1CCC[C@@H]1CNC(=O)c1ccc(-c2cc(C)c3nccn3c2)cc1 | -2% | 0.29
O=C(NCc1csc(-c2cnccn2)n1)c1cc(-c2ccccc2O)[nH]n1 | -5% | 0.76
Cc1nc(C)n(C[C@H]2CCCN(C(=O)c3cnn4ccncc34)C2)n1 | -9% | 1.58

Compound | % Inhibition | Z score
CCOc1cc(N2CC[C@H](N3CCN(C(C)C)CC3)C2)nc(C)n1 | 13% | -2.27
Cc1noc(-c2cccnc2N2CC[C@H](NC(=O)c3cc4ccccc4[nH]3)C2)n1 | -7% | 1.29
Cc1cccnc1NCCNc1nccc(-c2ccncc2)n1 | -1% | 0.15
COc1cncc(-c2ccc(C(=O)NC3CNCC3O)cc2)c1 (configuration not stated) | 1% | -0.09
c1ccc(CN2CCC(CCNC[C@@H]3CCCN4CCCC[C@H]34)CC2)cc1 | 57% | -10.03
Nc1ccnc2c(-c3cccc(C(=O)NCCN4CCCCC4)c3)cccc12 | 14% | -2.39
O=C(N1CC[C@H](OC(F)F)C1)C1(O)CCc2cc(Br)ccc2C1 (some centres not stated) | -16% | 2.43
CCNC(=O)c1[nH]nc(-c2ccc(OC)cc2O)c1-c1ccc(-c2ccccc2)cc1 | -7% | 1.07
O=S1(=O)CCCN1c1cc(NC2CCN(CCN3CCOCC3)CC2)ccc1F | -4% | 0.97
c1ccc2c(NCC(C3CCOC3)N3CCOCC3)nc(-c3ccsc3)nc2c1 (configuration not stated) | -10% | 1.51
O=C(N[C@@H]1CCCNC1)c1ccnc(OCc2ccccc2)c1 | -6% | 1.02
CN(Cc1cc(-c2ccncc2)no1)c1ncc(F)c(N2CCCC2)n1 | -2% | 0.4
O=C(CNS(=O)(=O)c1ccc2c(c1)COC2)Nc1ccc2[nH]ccc2c1 | -11% | 2.43
Cc1noc(C)c1COc1ccc(CC(=O)Oc2ccc(Cl)c3cccnc23)cc1 | -3% | 0.48
c1ccc(-c2nc(NCc3ccnc(O[C@H]4CCOC4)c3)no2)cc1 | -19% | 3.32
COc1ccc2cc([C@H](C)NC(=O)NC3(CO)CCCC3)ccc2c1 | -10% | 1.64
O=C(CN1CC2(CCCC2)CC1=O)N1CCOc2ccc(Cl)cc2C1 | -5% | 0.78
COCC[C@H](NCC(=O)N1CCC(C(=O)N2CCCCCC2)CC1)C(C)(C)C | 1% | -0.13
CO[C@H]1C[C@H]2CC[C@@H](C1)N2C(=O)CCCn1nc(C)cc1C | -2% | 0.34
Cc1ccc2[nH]c(CN[C@@H]3CN(C)C[C@H]3c3cncn3C)cc2c1C | 15% | -2.3
COc1cccc([C@@H]2CCCN2c2nc(-c3ccncc3)cnc2N)c1 | -4% | 0.61

Compound | % Inhibition | Z score
Nc1nc2c(c(NCCc3cn[nH]c3)n1)CCN(C1CCOCC1)CC2 | 6% | -1.04
Cc1cccc(N2CCC(NCc3cc(C)cc(CN4CCN(C)CC4)c3C)CC2)c1 | 35% | -7.04
CN1CCN(C2(CNC(=O)C3(N4CCCC4)CCCC3)CCCCC2)CC1 | 16% | -3.35
CN1CCN(C(=O)c2ccc(NCc3cccc4[nH]ccc34)cc2)CC1 | -4% | 0.59
CN1CCN(c2ncc(F)c(Nc3ccc(O)cc3)n2)CC1 | -14% | 2.08
O=C(N[C@H]1CCCN(C2CCCCC2)C1=O)c1ccnc2ccccc12 | 3% | -0.48
CC(C)NS(=O)(=O)c1cc(NCc2cccc(-c3ccco3)c2)cc(C(=O)N[C@H]2CCCCNC2=O)c1 | -20% | 4.34
CC[C@@H](Nc1cc(OC)nc(COC)n1)C(=O)O | -7% | 1.02
COc1cc2nc(C)sc2cc1NC(=O)N[C@H]1CCCCNC1=O | -13% | 2.17
Fc1ccc(-c2csc(NCCCN3CCN(c4ncccn4)CC3)n2)cc1 | -2% | 0.36
CO[C@H]1C[C@@H](CNc2nc3cc(F)ccc3o2)N(c2cc(C)ncn2)C1 | -2% | 0.34
O=C(NC1CCNCC1O)c1cccc(-c2cc(C(F)(F)F)ccn2)c1 (configuration not stated) | -3% | 0.44
Cc1nc(N[C@H]2CCN(C(=O)OC(C)(C)C)C2)cc(-c2ccncc2)n1 | -5% | 1.04
Cc1cc(N2CCCN(c3noc(-c4ccccc4)n3)CC2)ccn1 | 3% | -0.5
c1ccc(CN2CCN(CCN3CCc4[nH]cnc4C3)CC2)cc1 | -4% | 0.73
CCN(c1ccc2[nH]ccc2c1)S(=O)(=O)c1cnn2c1OCCC2 | -15% | 2.59
O[C@H]1CCCN(CCCNc2ncccc2-c2ncon2)C1 | -1% | 0.24
Cc1ncc(CNC(=O)c2ccc(C)c(C)c2Cl)o1 | 0% | -0.04
CC(=O)N1CCN(Cc2cccc(-c3ccc4c(c3)NC(=O)NC4)c2)CC1 | 3% | -0.73
Cc1ccc(OC2CCN(CCCN3CCN(c4ccccc4)CC3)CC2)nc1 | -2% | 0.26
COC(=O)c1cn(C[C@H](c2ccc(N(C)C)cc2)c2c[nH]c3ccccc23)cc2c(O)nnc1-2 | -7% | 1.13

Compound | % Inhibition | Z score
Fc1ccc(N2CC[C@H](N3CCCC4(CCNCC4)C3)C2)cc1 | -10% | 1.53
OC1CCN(C[C@H](O)COc2cccc(CN3CCC4(CCO4)CC3)c2)CC1 | -2% | 0.36
CN1C(=O)C2CCCC1CN(C/C=C/c1ccccc1)C2 (configuration not stated) | 3% | -0.39
CC(C)C[C@@H](CNC(=O)Nc1ccc(N2CCCN(C)CC2)c(F)c1)N1CCOCC1 | -4% | 0.63
O=C(c1ccc(NC[C@H](c2ccccc2)c2c[nH]c3ccccc23)nc1)N1CCCC1 | -11% | 1.69
CC(C)N1CCC(N(CCNC(=O)c2ccncn2)C2CCOCC2)CC1 | -15% | 2.72
CNc1ccnc(N(C)CCN2CCCC[C@@H]2C)n1 | 1% | -0.24
CC1CCN(C2CCC(Nc3ncnc4c3ncn4C3CC3)CC2)CC1 (configuration not stated) | -4% | 0.79
C[C@@H](CN1CCN(C)CC1)NCCc1nc(-c2ccccc2)cs1 | 3% | -0.48
COc1cccc(-n2cc([C@H](C)Nc3ncnc4cc[nH]c34)cn2)c1 | 7% | -1.22
COC(=O)N1CCC(NC2CCN(CCC(F)(F)F)CC2)CC1 | 1% | -0.25
COc1ccnc(NCc2cccc(-c3ncc[nH]3)c2)n1 | 1% | -0.21
CC(C)c1cc(C(F)(F)F)nc(N2CCN(c3ncnc4cc[nH]c34)CC2)n1 | 2% | -0.43
CCN(CC)c1ccc(-c2noc(CN3CCN(C4CCCCC4)CC3)n2)cn1 | -7% | 0.99
CC1(C(=O)NC2CCN(Cc3ccc(F)cc3)C2=O)CCCOC1 (configuration not stated) | 6% | -1.1
Cc1nc(C(=O)NCc2cc3ccccc3o2)cs1 | 6% | -1.15
Cc1cccc(-c2cncc(C(=O)NC[C@H]3C[C@@H](N(C)C)C3)c2)c1 | 12% | -2.61
CCN1CCC[C@@H]1CNC(=O)c1ccc(-c2cnn3cccnc23)cc1 | -6% | 1
